# Among all 350,000 compounds or so, about 600 (0.17%) were called active. The inconclusive results got no clear call from the source; some entries with a clear call stand among them for comparison.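 Rule for the calls: active = every replicate shows inhibition of at least 40%; inconclusive = mean inhibition at least 40% but some replicate below; inactive = the rest.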
# Assay: inhibitors of PGC1a acetylation signal, primary screen, cell-based, U2OS, AlphaScreen, inhibitor mode (AID 651687);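 note: 0% = neutral control wells and 100% = positive control wells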
# Conditions: AlphaScreen anti-acetyl-lysine, at 15.6 µM, hits give high values, with virally co-expressed GCN5 acetyltransferase
row,Structure (SMILES),inhibition
1,C#CC(=O)N(c1cccc(OC)c1)C(C(=O)NC1CCCC1)c1cccs1 (configuration not stated),active: 93%
2,C[C@H]1CN([C@@H](C)CO)C(=O)c2cc(NC(=O)Nc3cccc4ccccc34)ccc2O[C@H]1CN(C)S(=O)(=O)c1ccc(Cl)cc1,inconclusive: 41%
3,CC1C(=O)C(C)(C)C(=O)OC1c1ccccc1 (configuration not stated),inconclusive: 49%
4,Cc1noc(C)c1S(=O)(=O)Nc1ccc2c(c1)C(=O)N([C@@H](C)CO)C[C@@H](C)[C@@H](CN(C)CC1CCCCC1)OCCCC[C@@H](C)O2,active: 84.6%
5,O=C(Cn1nc(C(=O)O)c2ccccc2c1=O)Nc1cccc(Br)c1,inconclusive: 52.2%
6,COc1ccccc1C#Cc1ccc2c(c1)O[C@@H](CN(C)Cc1cccnc1)[C@H](C)CN([C@@H](C)CO)S2(=O)=O,active: 44.4%
7,Cc1cc(C)c(C#N)c(SCC(=O)Nc2nnc(-c3ccccc3)s2)n1,inconclusive: 44.9%
8,Cc1ccsc1/C=N/NC(=O)c1cccnc1,inactive: 4%
9,COc1ccc(OC)c(/C=N/NC(=O)c2[nH]ncc2Br)c1,inconclusive: 44%
10,Cc1ccc(NC(=O)CCNC(=O)c2ccccc2Cl)cc1S(=O)(=O)N(C)C,inactive: 3.45%
11,NC(=O)COC(=O)CC(NC(N)=O)c1ccc(Cl)cc1 (configuration not stated),active: 107%
12,C[C@H](CO)N1C[C@H](C)[C@@H](CN(C)Cc2ccc3c(c2)OCO3)Oc2ccc(NC(=O)Nc3ccc(C(F)(F)F)cc3)cc2CC1=O,inactive: -12.7%
13,CCN(CC)C(=O)c1sc(NC(=O)c2ccncc2)c(C(=O)OC)c1C,inconclusive: 52.4%
14,C=C1SC(Nc2c(C)cccc2C)=NC12CCCCC2,inactive: -1.13%
15,c1ccc(CNc2ncnc3nc[nH]c23)cc1,inconclusive: 45.2%
16,Cc1ccc(C(=O)c2cncc(Br)c2)cc1,inconclusive: 42%
17,COC(c1ccccc1)c1nnc(CCC(=O)N(C)C(C2CC2)C2CC2)o1 (configuration not stated),inconclusive: 42.4%
18,CCCN1[C@@H]2Cn3c(cccc3=O)[C@H]1[C@@H](C(=O)N[C@@H](C)c1ccccc1)[C@@H]2CO,inactive: 7.86%
19,NNS(=O)(=O)c1ccc(Cc2ncc(C(F)(F)F)cc2Cl)s1,inconclusive: 49.5%
20,COc1ccc(S(=O)(=O)Nc2ccc3c(c2)C(=O)N([C@@H](C)CO)C[C@@H](C)[C@H](CN(C)C(=O)Nc2ccccc2)OCCCC[C@@H](C)O3)cc1,inactive: -8.9%
21,C[C@H]1CCCCO[C@@H](CN(C)C(=O)c2ccccc2)[C@@H](C)CN([C@@H](C)CO)C(=O)c2cc(NC(=O)Nc3ccc(F)cc3)ccc2O1,inconclusive: 42.5%
22,CO[C@@H]1CN(C)C(=O)c2cc(NS(C)(=O)=O)ccc2OC[C@@H](C)N(S(=O)(=O)CC(F)(F)F)C[C@H]1C,inactive: 5.13%
23,Cc1cccc(NC(=O)c2cc3ccccc3o2)c1,inactive: 13.1%
24,CC(C)(C)NC(=O)C(=O)NNC(=O)c1cccc([N+](=O)[O-])c1,inconclusive: 56.9%
25,C[C@H](CO)N1C[C@H](C)[C@H](CN(C)Cc2ccc(C(=O)O)cc2)Oc2ncc(-c3ccccc3)cc2C1=O,inconclusive: 41.5%
26,COC(=O)c1ccc(Cl)c(NC(C)=O)c1,inconclusive: 47.5%

row,Structure (SMILES),inhibition
1,C[C@H]1CN([C@@H](C)CO)S(=O)(=O)c2ccc(C3=CCCC3)cc2O[C@@H]1CN(C)C,inconclusive: 58.9%
2,CCOC(=O)N1CCC(N(CCN(C)C)C(=S)Nc2cccc(OC)c2)CC1,inconclusive: 44.8%
3,COCC(C)NS(=O)(=O)c1ccc(C)cc1 (configuration not stated),inactive: -18.1%
4,COc1cccc(CC(=O)Nc2ccc(N3CCOCC3)c(S(=O)(=O)Nc3ccccc3OC)c2)c1,inactive: -23.3%
5,Cc1ccc(S(=O)(=O)N[C@H]2C=C[C@H](CC(=O)NCCN3CCCCC3)O[C@H]2CO)cc1,inconclusive: 45.9%
6,C[C@@H]1CN([C@H](C)CO)C(=O)CCCn2cc(nn2)CO[C@H]1CN(C)C(=O)Nc1ccc(C(F)(F)F)cc1,inconclusive: 49.2%
7,COc1cnc(-c2ccccn2)nc1Sc1ccc(C)cc1,inconclusive: 59.8%
8,C[C@@H]1CN([C@@H](C)CO)C(=O)c2cc(C#CC3CCCC3)cnc2O[C@H]1CN(C)C(=O)Nc1ccccc1,inconclusive: 44.6%
9,Cc1ccccc1C(=O)Nc1nnc(-c2ccncc2)o1,inactive: 9.32%
10,N=c1n(Cc2ccccc2)c2ccccc2n1CC(O)COc1ccc(Cl)cc1Cl (configuration not stated),inconclusive: 44.3%
11,CN(C)CCCN(C(=O)c1cc2cc([N+](=O)[O-])ccc2s1)c1nc2cc3c(cc2s1)OCCO3,active: 53.6%
12,Cc1noc(C)c1S(=O)(=O)Nc1ccc2c(c1)C(=O)N([C@@H](C)CO)C[C@@H](C)[C@@H](CN(C)S(=O)(=O)c1ccccc1)O2,inconclusive: 50.3%
13,Cc1ccc2oc(Nc3nc(C)c(C)c(C)n3)nc2c1,inconclusive: 40.8%
14,CC(=O)c1c(C)[nH]c(C(=O)Nc2cc(C)cc(C)c2)c1C,inactive: -17.8%
15,O=C(CSc1nc2ccc(Cl)cc2[nH]1)c1ccc2c(c1)OCO2,inconclusive: 49.1%
16,CCOC(=O)c1ccc(N=CC2=C(O)CC(C)(C)CC2=O)cc1,inactive: -4.79%
17,CN1CCN(/N=C/c2ccc(N(c3ccccc3)c3ccccc3)cc2)CC1,active: 56.4%
18,COc1ccc(-n2ncc3c(NCc4cccnc4)ncnc32)cc1,inactive: 6.86%
19,CCN1CCN(Cc2ccc(NC(=O)c3cc(NC(=O)c4cc(-c5ccc(OC)cc5)n[nH]4)cc(OC)c3)cc2C(F)(F)F)CC1,inactive: -14.1%
20,CCOC(=O)c1c(NC(=O)c2ccoc2C)sc2c1CCC2,inconclusive: 57.4%
21,C[C@@H]1CCCCO[C@@H](CN(C)S(=O)(=O)c2ccc(Cl)cc2)[C@H](C)CN([C@H](C)CO)C(=O)c2cc(NS(=O)(=O)c3ccc(Cl)cc3)ccc2O1,inactive: 5.95%
22,CC(C)(C)OC(=O)NC(Cc1ccccc1)C(=O)NCCCC(=O)O (configuration not stated),inconclusive: 42.7%
23,Cc1cc(C)nc(NC(=O)NS(=O)(=O)Nc2ccc(Br)cn2)n1,inconclusive: 43.9%
24,Cc1ccc(NC(=O)c2ccccc2)cc1-n1cnnn1,inconclusive: 40.3%
25,O=S(=O)(c1ccc(Br)s1)N1CCN(Cc2ccc3c(c2)OCO3)CC1,inconclusive: 47%
26,COc1ccc2c3c(n(C)c2c1)[C@H](CO)N(C(=O)Nc1ccc(F)cc1)CC31CCN(S(=O)(=O)c2cccc(C)c2)CC1,inactive: -1.26%

row,Structure (SMILES),inhibition
1,O=C(C[C@H]1CC[C@@H](NC(=O)c2ccccc2)[C@H](CO)O1)Nc1ccc(-c2ccccc2)cc1,active: 43.7%
2,Cc1c(F)cccc1NC(=O)CCC(=O)O,inactive: 6.21%
3,N#Cc1ccc(-c2ccc([C@@H]3[C@@H]4CN(S(=O)(=O)c5ccc(-c6ccccc6)cc5)C[C@H]3N4)cc2)cc1,active: 84.9%
4,N#Cc1c(N)c(C(=O)c2ccccc2)n2ccccc12,inconclusive: 49.3%
5,CC(C)C(=O)Nc1ccc(NC(=O)c2ccc([N+](=O)[O-])cc2Cl)cc1,inconclusive: 51.6%
6,CCOC(=O)c1ccc(S(=O)(=O)N2CCC(C(=O)OCC)CC2)cc1,inactive: -8.78%
7,CSc1ncccc1C(=O)N1CCN(C(=O)c2ccccc2)CC1,inconclusive: 43.6%
8,CN(CCc1ccccc1)C(=O)c1ccc(NC(=O)Cc2ccc(NC(=O)C3CCN(C(=O)C4CCCCC4)CC3)cc2)cc1,inconclusive: 42.1%
9,N=c1c(C(=O)NCc2ccco2)cc2c(=O)n3ccccc3nc2n1CCc1ccccc1,inactive: -16.5%
10,CCS(=O)(=O)c1ccc2oc(Nc3ccccc3Br)nc2c1,inconclusive: 51.8%
11,NC(=O)c1sc2nc3c(c(-c4cccs4)c2c1N)CCCCC3,inconclusive: 43.6%
12,COc1ccc(CC(NC(C)=O)C(=O)N2CCN(C(=O)Nc3cccc(Cl)c3)CC2)cc1OC (configuration not stated),inconclusive: 50.7%
13,O=C(CSc1nnc(-c2ccco2)n1-c1ccccc1)Nc1c(Cl)cc(Cl)cc1C(=O)O,active: 52.4%
14,CCCn1cc(SCC(=O)NCc2ccco2)c2ccccc21,inactive: -30.4%
15,O=C(CN1C(=O)C2C3CC(C(Br)C3Br)C2C1=O)OCC(=O)c1cccc([N+](=O)[O-])c1 (configuration not stated),active: 75.8%
16,Cn1c(C(C#N)C(=O)c2sc3ccccc3c2Cl)nc2ccccc21 (configuration not stated),inconclusive: 49.8%
17,CCOC(=O)NC(=O)CSc1nnnn1-c1ccc(C)cc1,active: 93.5%
18,C[C@H]1CN([C@@H](C)CO)C(=O)c2cc(C3=CCCC3)cnc2O[C@@H]1CN(C)C(=O)c1cccnc1,inconclusive: 53.2%
19,Cc1cc(N)c2cc(NC(=O)/C=C/c3ccccc3Cl)ccc2n1,active: 80.4%
20,CCCCNC(=O)C1CCN(Cc2ccccn2)CC1,inconclusive: 45.9%
21,COc1ccc(S(=O)(=O)Nc2ccc3c(c2)C(=O)N([C@@H](C)CO)C[C@@H](C)[C@H](CN(C)S(=O)(=O)c2ccc(Cl)cc2)OCCCC[C@H](C)O3)cc1,inconclusive: 49.3%
22,C[C@@H]1CN([C@H](C)CO)C(=O)c2cc(NS(=O)(=O)c3ccc(F)cc3)ccc2O[C@H]1CN(C)Cc1ccc(C(F)(F)F)cc1,inconclusive: 55.7%
23,C[C@H](CO)N1C[C@H](C)[C@@H](CN(C)CC2CCCCC2)Oc2c(NC(=O)c3nc4ccccc4s3)cccc2C1=O,inconclusive: 54.8%
24,O=C(CNC(=O)C1CCCCC1)OCC(=O)c1ccc(Cl)s1,inconclusive: 45.2%
25,C[C@@H]1CN([C@@H](C)CO)C(=O)c2cccc(NC(=O)c3nc4ccccc4s3)c2O[C@H]1CN(C)Cc1ccc(C(F)(F)F)cc1,inactive: 13.3%
